Patent publication US20110152343A1, “PROTEASE INHIBITORS AND BROAD-SPECTRUM ANTIVIRAL” (Functional Genetics, Inc., priority 2009, published 2011)

System: RSV
Assay: RSV infection, timing of administration (production of virus particles)
Details: administration before or within the first few hours after infection with RSV
Description: To determine the time in which treatment of cells with FGI-103 family compounds would be effective at inhibiting viral infection, NSC 369723 compound was tested for its ability to inhibit the production of virus particles (pfu/ml) depending on the time of treatment relative to the timing of infection of RSV.

## N=C(N)c1ccc2oc(/C=C/c3nc4ccc(C(=N)N)cc4[nH]3)cc2c1 [NSC 369723]
  inhibition of the production of virus particles (pfu/ml): effectively inhibited
